This note sets out measurements from paper PMC5836133.

Some of the results follow. At the low end of the ranking the order means little.

In this assay the test system is T1, GST-NbGlk1(82-244).
T1 sequence: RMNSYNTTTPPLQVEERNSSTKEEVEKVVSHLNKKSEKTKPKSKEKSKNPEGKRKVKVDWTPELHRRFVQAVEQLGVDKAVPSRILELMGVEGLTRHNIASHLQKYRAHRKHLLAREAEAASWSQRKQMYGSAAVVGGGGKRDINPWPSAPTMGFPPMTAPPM
As to the kind of experiment: protein-binding microarray.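 Further: rank-based score ranging −0.5 to +0.5 with E above 0.45 taken as significant binding.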 The note with it: NbGlk1 is a Golden2-like transcription factor of Nicotiana benthamiana; high values mean tight binding; most listed sequences are background and not binding sites; double strand, one strand shown.
Take AGCCCGCG: the binding signal is -0.243 E-score.

Regarding CAGCACAG, the binding signal is -0.202 E-score.

AGCACAAG registered a binding signal of -0.0517 E-score.

Turning to AAGGATTG, the binding signal was determined as 0.247 E-score.

As to ATCCTTAG, the binding signal is 0.108 E-score.

AATGCAGC showed a binding signal of -0.0814 E-score.

Sequence AAACATGA displayed a binding signal of 0.075 E-score.

Consider AATCAATC, for which the binding signal was 0.252 E-score.

For ATTTTGCC, the binding signal is 0.208 E-score.

AGTAGTCC showed a binding signal of -0.11 E-score.

In the case of ATCCTGTA, the binding signal is 0.304 E-score.

In turn, ACTACAAG displayed a binding signal of -0.0898 E-score.

In turn, ATCACTAA yielded a binding signal of 0.0696 E-score.

For CAGATGGG, the binding signal is -0.194 E-score.

Take ACCCCGAT: the binding signal came out at 0.199 E-score.

On to ATGGGCTA, for which the binding signal was -0.0362 E-score.

ACGAAGTG registered a binding signal of -0.18 E-score.

ATATCCTG: the binding signal was found to be 0.373 E-score.

With AAATCATT, the binding signal is 0.223 E-score.

AAGGGCAG had a binding signal of -0.22 E-score.

ATGTCCGC came in with a binding signal of -0.216 E-score.

Turning to ACCGGAAG, the binding signal is -0.265 E-score.

Sequence ACGTTACG showed a binding signal of 0.0571 E-score.

On to AGACGAAT, for which the binding signal worked out at 0.00696 E-score.

Sequence AAACTCGC had a binding signal of -0.0527 E-score.

For the sequence ACCAGCGG, the binding signal was -0.232 E-score.

AGAGCTAA gave a binding signal of -0.0588 E-score.

The sequence AGGACATC showed a binding signal of -0.14 E-score.

Turning to ATGGCTCA, the binding signal is -0.0608 E-score.

As for AGCAGAAA, the binding signal was -0.0794 E-score.

ATCACTAC showed a binding signal of 0.137 E-score.

The sequence AAGCGAGT showed a binding signal of -0.0603 E-score.

AGGCGCAA registered a binding signal of 0.0251 E-score.

In turn, ACTCAATC yielded a binding signal of -0.00742 E-score.

Sequence ATGTTTGA yielded a binding signal of 0.0264 E-score.

The sequence ACCGTGAT registered a binding signal of 0.143 E-score.

The sequence AGCAATAA registered a binding signal of -0.0445 E-score.

As to AACGAGTC, the binding signal is -0.134 E-score.

Take ATCATCGC: the binding signal is 0.0336 E-score.

The sequence AATACTGG gave a binding signal of 0.0731 E-score.

Sequence CAATATTA registered a binding signal of 0.162 E-score.

In turn, CACAGAGA displayed a binding signal of 0.19 E-score.

Sequence ACAATCGA had a binding signal of 0.201 E-score.

With ATACGACA, the binding signal is 0.125 E-score.

The sequence ACCAAAGC registered a binding signal of -0.153 E-score.

With ATCGGCTA, the binding signal was found to be 0.0825 E-score.

ACTGAGAA showed a binding signal of 0.0409 E-score.

Sequence AAAGGGGT displayed a binding signal of -0.171 E-score.

Sequence AAGCAACT showed a binding signal of -0.138 E-score.

As for ACGAACCG, the binding signal is -0.109 E-score.

In the case of AACAACCG, the binding signal is -0.175 E-score.

Consider AGTGCGAA, for which the binding signal is 0.0621 E-score.

ACGGTGTC showed a binding signal of -0.219 E-score.

ATAGTCAC: the binding signal is -0.156 E-score.

Turning to AATACCGG, the binding signal was -0.0435 E-score.

AAGCTGCA had a binding signal of -0.161 E-score.

Sequence ACGACCTA gave a binding signal of -0.151 E-score.

Regarding AGACCTAT, the binding signal was -0.0733 E-score.

ATAGTACA displayed a binding signal of 0.0403 E-score.

In the case of AATTTCGG, the binding signal amounted to 0.245 E-score.

ACGCAGGA returned a binding signal of -0.1 E-score.

As for ATTCGGCG, the binding signal turned out to be 0.122 E-score.

For the sequence AATTTCCC, the binding signal came to 0.192 E-score.

Sequence AGAGCGAT gave a binding signal of 0.122 E-score.

Take AATTCACC: the binding signal was found to be 0.0133 E-score.

On to CACCTATG, for which the binding signal was -0.0688 E-score.

AGTAGCTG came in with a binding signal of -0.212 E-score.

AAGGTATT showed a binding signal of 0.0288 E-score.

On to AGCAAGGA, for which the binding signal is -0.0751 E-score.

Regarding ACGTCATA, the binding signal is -0.0218 E-score.

Take ATGGAGGC: the binding signal is -0.217 E-score.

In turn, ATCTCGGC registered a binding signal of 0.335 E-score.

With AAATTATA, the binding signal was determined as 0.256 E-score.

AAAGCATC registered a binding signal of -0.0794 E-score.

Sequence AAACGCCA gave a binding signal of -0.162 E-score.

CACCGAGC showed a binding signal of -0.311 E-score.

Sequence AGATAGCA came in with a binding signal of 0.0963 E-score.

The sequence ATAACGGC yielded a binding signal of 0.0591 E-score.

The sequence AATCCCAT registered a binding signal of 0.331 E-score.

Sequence ATGCCGCC gave a binding signal of -0.144 E-score.

Take ATTACGCC: the binding signal worked out at 0.162 E-score.

Take ACCTGGCA: the binding signal was -0.117 E-score.

The sequence AGCTCAAA had a binding signal of -0.146 E-score.

In turn, AAGTCATG came in with a binding signal of -0.157 E-score.

Take ACTGTTGA: the binding signal was -0.0965 E-score.

The sequence CAAGATTC gave a binding signal of 0.406 E-score.

Sequence ATGTACCC showed a binding signal of -0.167 E-score.

Regarding AATAACCT, the binding signal is -0.027 E-score.

Regarding AGACGCCA, the binding signal was -0.225 E-score.

Sequence AACATTCA displayed a binding signal of -0.057 E-score.

In turn, ATTCGGTC displayed a binding signal of 0.142 E-score.

With AATCACCC, the binding signal was determined as 0.0957 E-score.

AACCGATT yielded a binding signal of 0.196 E-score.

The sequence AACCCGTT had a binding signal of -0.161 E-score.

For the sequence AATCAAAT, the binding signal is 0.297 E-score.

With AAAATATC, the binding signal was found to be 0.406 E-score.

Sequence AACGGACA registered a binding signal of 0.0203 E-score.

ACACTTGC yielded a binding signal of -0.189 E-score.

Turning to ATAAGCTC, the binding signal came out at 0.000388 E-score.

In the case of AAGACATG, the binding signal is -0.0617 E-score.

In turn, AGAATGAT gave a binding signal of 0.157 E-score.

CAGAGTAG showed a binding signal of -0.0285 E-score.

For the sequence CACTTTTC, the binding signal is -0.0557 E-score.

As for ATATGAAC, the binding signal turned out to be 0.145 E-score.

In the case of AGTGTAAC, the binding signal was 0.0256 E-score.

The sequence ACTGGTAT yielded a binding signal of -0.0291 E-score.

Sequence AAGTGTAT came in with a binding signal of 0.0409 E-score.

ACCGTGAG: the binding signal is -0.179 E-score.

The sequence CACCTCAC registered a binding signal of -0.0754 E-score.

The sequence AGAGGCCC displayed a binding signal of -0.327 E-score.

Sequence CAATAGTC yielded a binding signal of -0.0652 E-score.

The sequence ATGGTGGA yielded a binding signal of -0.0971 E-score.

ACTTGAGC came in with a binding signal of -0.208 E-score.

CACGGTTC displayed a binding signal of -0.149 E-score.

For CAATGTCG, the binding signal is -0.023 E-score.

Take AGTTCGGC: the binding signal was -0.223 E-score.

Sequence CAACACGA yielded a binding signal of 0.0501 E-score.

Regarding CACGTGCG, the binding signal was -0.0565 E-score.

AATCATCA: the binding signal stood at 0.212 E-score.

CAAGCTGG came in with a binding signal of -0.286 E-score.

As to AAAAAAGA, the binding signal amounted to 0.114 E-score.

The sequence AGTTTGGG returned a binding signal of -0.00283 E-score.

The sequence ACTCGACA registered a binding signal of -0.0957 E-score.

Regarding ATACGTAA, the binding signal came to 0.243 E-score.

Regarding AACACTAT, the binding signal is 0.0545 E-score.

As for ATTTGTGG, the binding signal was determined as 0.122 E-score.

AACATCCG: the binding signal is 0.0839 E-score.

Sequence AAGATCGT gave a binding signal of 0.291 E-score.

For the sequence AGAACTAA, the binding signal stood at 0.0988 E-score.

On to AAATACGC, for which the binding signal was found to be 0.204 E-score.

The sequence ATGTACTG displayed a binding signal of -0.0742 E-score.

The sequence ATCTCCCA yielded a binding signal of 0.291 E-score.

Regarding ATGAGCAC, the binding signal was found to be 0.00769 E-score.

Sequence AGTTTCTG registered a binding signal of 0.000734 E-score.

With ACTCCAGG, the binding signal is -0.229 E-score.

The sequence ACCGCTCT returned a binding signal of -0.102 E-score.

With ACGTATTC, the binding signal came out at 0.0876 E-score.

Regarding CACAGTAC, the binding signal was -0.113 E-score.

ATGAGGTC: the binding signal is -0.181 E-score.

Sequence ACCGACAC came in with a binding signal of -0.0628 E-score.

As for AAGCCCGC, the binding signal is -0.361 E-score.

The sequence AGTTAGAG yielded a binding signal of 0.0464 E-score.

Turning to CACTTCAC, the binding signal is 0.118 E-score.

AACTACAA returned a binding signal of 0.077 E-score.

ACATAGAC returned a binding signal of 0.0927 E-score.

As to AAAAGACA, the binding signal was determined as 0.0173 E-score.

Turning to AACAAGAA, the binding signal was found to be 0.119 E-score.

On to AGGACACC, for which the binding signal was -0.157 E-score.

In turn, AAGGGCGA had a binding signal of -0.132 E-score.

Sequence CAATCTCA displayed a binding signal of 0.329 E-score.

For the sequence ACCCCTTC, the binding signal is -0.275 E-score.

Take CAGAACTA: the binding signal stood at 0.143 E-score.

Sequence AACCTAGA came in with a binding signal of -0.0363 E-score.

With ACGGGTCT, the binding signal was -0.32 E-score.

The sequence AGTTGAAC came in with a binding signal of -0.158 E-score.

Regarding ACAATGCT, the binding signal is -0.0822 E-score.

ATTTAGGC showed a binding signal of 0.0464 E-score.

The sequence ATGAGCGG showed a binding signal of -0.21 E-score.

With CACCGAAC, the binding signal is -0.186 E-score.

Consider AGGGTATC, for which the binding signal was 0.307 E-score.

As for ACTGTCGA, the binding signal is -0.126 E-score.

As for CACCAGAG, the binding signal is -0.0602 E-score.

In the case of AAGGCTCA, the binding signal was -0.287 E-score.

In turn, ATCATGAG displayed a binding signal of 0.137 E-score.

In turn, AAAATGAT yielded a binding signal of 0.142 E-score.

Regarding AATGAGTG, the binding signal is -0.119 E-score.

ACACTCAG had a binding signal of -0.116 E-score.

For AAGCGAAG, the binding signal was -0.169 E-score.

For ATACGCAA, the binding signal was found to be 0.311 E-score.

For the sequence AATGTACA, the binding signal turned out to be 0.0592 E-score.

Regarding ATTTTGTG, the binding signal worked out at 0.323 E-score.

In the case of AATTCCCT, the binding signal is 0.246 E-score.
